The values that follow come from PMC4336329 (PLoS ONE, 2015).

Among all 310,000 compounds or so, about 14,000 (4.5%) showed an effect of 50% or more. The effect is printed as a negative number. Some of the results follow.
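Also: peak tail current of the secondary pulse compared with the same well before compound.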

For this experiment, the target named is human ether-à-go-go-related gene (hERG) potassium channel (human, UniProt Q12809). Briefly: primary screen, population patch clamp on CHO cells stably expressing hERG.
Sequence of human ether-à-go-go-related gene (hERG) potassium channel (Q12809 whole entry, looked up): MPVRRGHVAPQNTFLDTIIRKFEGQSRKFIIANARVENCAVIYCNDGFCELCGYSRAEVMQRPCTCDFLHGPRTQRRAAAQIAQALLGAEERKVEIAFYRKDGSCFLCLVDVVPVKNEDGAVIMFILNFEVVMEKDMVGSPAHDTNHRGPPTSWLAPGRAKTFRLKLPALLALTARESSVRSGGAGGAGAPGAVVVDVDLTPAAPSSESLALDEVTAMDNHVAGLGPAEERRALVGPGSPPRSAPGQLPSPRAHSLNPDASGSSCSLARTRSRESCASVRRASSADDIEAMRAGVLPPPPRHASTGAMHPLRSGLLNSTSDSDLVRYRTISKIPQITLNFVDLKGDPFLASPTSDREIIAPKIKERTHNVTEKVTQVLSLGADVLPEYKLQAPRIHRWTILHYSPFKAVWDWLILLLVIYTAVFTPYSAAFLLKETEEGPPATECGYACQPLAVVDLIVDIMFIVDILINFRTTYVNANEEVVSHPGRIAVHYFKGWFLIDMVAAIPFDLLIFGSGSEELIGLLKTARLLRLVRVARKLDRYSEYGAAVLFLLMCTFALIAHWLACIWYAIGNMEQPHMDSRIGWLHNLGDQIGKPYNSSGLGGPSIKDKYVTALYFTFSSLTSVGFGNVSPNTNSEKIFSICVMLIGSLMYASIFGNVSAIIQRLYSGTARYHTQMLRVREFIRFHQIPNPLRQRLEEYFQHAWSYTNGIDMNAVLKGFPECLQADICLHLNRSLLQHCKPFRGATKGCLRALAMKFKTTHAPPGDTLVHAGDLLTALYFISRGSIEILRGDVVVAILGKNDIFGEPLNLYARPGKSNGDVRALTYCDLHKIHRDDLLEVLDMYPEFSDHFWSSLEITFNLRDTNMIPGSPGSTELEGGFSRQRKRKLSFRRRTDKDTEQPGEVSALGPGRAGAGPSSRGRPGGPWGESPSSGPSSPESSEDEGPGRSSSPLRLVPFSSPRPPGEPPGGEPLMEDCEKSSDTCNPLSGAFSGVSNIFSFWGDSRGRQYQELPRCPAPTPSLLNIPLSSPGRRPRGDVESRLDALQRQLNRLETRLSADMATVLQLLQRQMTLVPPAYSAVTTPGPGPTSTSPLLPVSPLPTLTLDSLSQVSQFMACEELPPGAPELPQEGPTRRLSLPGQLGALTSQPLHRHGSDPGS
As for `O=C(CCN1C(=O)c2ccccc2C1=O)N1CCN(c2ccccc2)CC1`, the “hERG current change (%, negative = inhibition) at 10uM” value is reported as -23%. On to `CCCn1cc(CN2CCC(Cc3ccccc3)(C(=O)OCC)CC2)c(C)n1`, for which the “hERG current change (%, negative = inhibition) at 10uM” value is -60.4%. The value for `COCc1[nH]nc2c1C(C1C=CCCC1)C(C#N)=C(N)O2` (stereo not drawn) was -8.37%.

With `CCOC(=O)C1CCCN(C(=O)Cn2nc(C)n3nc(-c4ccccc4)cc3c2=O)C1` (stereo not drawn), the “hERG current change (%, negative = inhibition) at 10uM” value was -8.5%.

For the compound `Cc1cc(C)c2c(NC(=O)CCl)nn(C)c2n1`, the “hERG current change (%, negative = inhibition) at 10uM” value was found to be 8.17%. For `CCOC(=O)N1CCN(C(=O)c2ccc(CS(=O)Cc3ccccc3Cl)o2)CC1` (stereo not drawn), the “hERG current change (%, negative = inhibition) at 10uM” value is given as 11.3%.

As for `CCc1ccccc1N1C(=O)C2C3CC(=O)C(c4ccccc43)C2C1=O` (stereo not drawn), the “hERG current change (%, negative = inhibition) at 10uM” value came out at 18.3%. With `CN(C)C(=O)/C=C\c1cn(-c2ccccc2)nc1-c1ccc2c(c1)OCCO2`, the “hERG current change (%, negative = inhibition) at 10uM” value came to 10.7%. Regarding `O=C1CCCCCN1C(=O)c1cccc(C(=O)N2CCCCCC2=O)c1`, the “hERG current change (%, negative = inhibition) at 10uM” value is reported as 4.67%. In the case of `O=C(CN1CCN(C(=O)C2CCCO2)CC1)Nc1cc(C(F)(F)F)ccc1Cl` (stereo not drawn), the “hERG current change (%, negative = inhibition) at 10uM” value is listed as -45.8%. Then `CCc1nc(SCC(=O)N2CCCCCC2)c2c(=O)n(C)c(=O)n(C)c2n1`, with -19.6%. Take `O=C(O)C1CSC(c2ccncc2)N1` (stereo not drawn): the “hERG current change (%, negative = inhibition) at 10uM” value was 17.6%. For `CCOC(=O)C(C)Sc1nnc(CNC(=O)c2ccc(OC)cc2)n1C1CCCCC1` (stereo not drawn), the “hERG current change (%, negative = inhibition) at 10uM” value is given as -8.89%. For the compound `CCNC(=S)Nc1cccc(NC(=O)c2ccccc2O)c1`, the “hERG current change (%, negative = inhibition) at 10uM” value is listed as 0.564%. Regarding `COC(=O)N(NC(=O)C(O)(C(C)C)C(C)C)c1ccccc1`, the “hERG current change (%, negative = inhibition) at 10uM” value worked out at 16.3%.

Take `CCC(=O)Nc1ccc(NC(=O)c2ccco2)cc1`: the “hERG current change (%, negative = inhibition) at 10uM” value is 8.4%. As for `Cc1cccc(N2N=C(C(=O)O)CCC2=O)c1`, the “hERG current change (%, negative = inhibition) at 10uM” value is given as 10.2%.

With `CSc1ccc(C2c3[nH]c4ccccc4c3CCN2C(=O)c2ccnn2C)cc1` (stereo not drawn), the “hERG current change (%, negative = inhibition) at 10uM” value is recorded as -13.7%. For the compound `Oc1ccc(Nc2nc(-c3ccc(O)cc3)cs2)cc1`, the “hERG current change (%, negative = inhibition) at 10uM” value came to 18.9%. Consider `CC1=C(C)/C(=N\OS(=O)(=O)c2ccc(C)cc2)C=CC1=O`, for which the “hERG current change (%, negative = inhibition) at 10uM” value was determined as 1.16%.

In the case of `COc1cc(-c2nnc(SCC(=O)N3CCCC3)o2)cc(OC)c1OC`, the “hERG current change (%, negative = inhibition) at 10uM” value amounted to 2.91%. With `Cc1ccc(C)c(NC(=O)CCC(=O)NNC(=O)C(c2ccccc2)c2ccccc2)c1`, the “hERG current change (%, negative = inhibition) at 10uM” value is 13.6%.

Regarding `Cc1ccc(-c2noc(-c3cccs3)n2)cc1`, the “hERG current change (%, negative = inhibition) at 10uM” value is reported as -0.851%. As to `CCOc1ccc(NC(=O)c2nn(-c3ccc(OC)cc3OC)c(=O)c3ccccc23)cc1`, the “hERG current change (%, negative = inhibition) at 10uM” value amounted to 6.71%. The value for `COC(=O)COc1ccc2c(-c3ccc(OC)cc3)cc(=O)oc2c1` was -39.2%; that for `O=c1[nH]ncc(N2CCCCCC2)c1Cl` was 6.77%; that for `NC(=O)C1CCN(C(=O)c2ccc([N+](=O)[O-])cc2NC(=O)c2cccs2)CC1` was 0.861%. Then `CCC(=O)Nc1nnc(S(=O)(=O)N(CC)c2cc(C)cc(C)c2)s1`, with 14.2%; and `Clc1ccc(CSc2nnc(Cn3cnc4ccccc43)o2)cc1`, with -8.81%; and `COc1ccc(/C=C2\SC(=S)N(CCCC(=O)N3CCCCC3CCO)C2=O)cc1` (stereo not drawn), with 5.09%. The value for `O=C(Nc1cccnc1)c1ccc2c(c1)C(=O)N(Cc1cccnc1)C2=O` was -11.1%; that for `COc1cccc(CC2(CO)CCCN(Cc3cn[nH]c3-c3ccc(F)cc3)C2)c1` (stereo not drawn) was 6.58%. Consider `CCCCN=Cc1c(C)[nH]n(-c2ccccc2)c1=S`, for which the “hERG current change (%, negative = inhibition) at 10uM” value is -4.64%.

For `O=C(Nc1cccc(O)c1)N1CCOCC1`, the “hERG current change (%, negative = inhibition) at 10uM” value is -6.87%. As to `COc1ccc(NC(=O)C2CCCN(S(=O)(=O)c3c(C)n[nH]c3C)C2)cc1OC` (stereo not drawn), the “hERG current change (%, negative = inhibition) at 10uM” value was 49.7%. Consider `CCCn1c(SCC(=O)c2ccc(OC)c(OC)c2)nc2c1c(=O)n(C)c(=O)n2C`, for which the “hERG current change (%, negative = inhibition) at 10uM” value amounted to 3.35%. Take `O=[N+]([O-])c1ccc2[nH]c(O)c(N=Nc3ccc(F)cc3)c2c1`: the “hERG current change (%, negative = inhibition) at 10uM” value came out at 14.6%. The value for `NC(=O)COC(=O)c1ccc2noc(-c3ccccc3)c2c1` was 2.86%; that for `COc1ccc(-c2cnnc(N/N=C/c3ccc(C)o3)n2)cc1` was 4.44%. The value for `CC(=O)Nc1ccc(S(=O)(=O)Nc2ccccc2C(=O)NCc2cccnc2)cc1` was 10.3%; that for `Cc1nc2sc(C(c3cccs3)N3CCC4(CC3)OCCO4)c(O)n2n1` (stereo not drawn) was -0.485%; that for `Cc1ccc(Cl)cc1N1CCN(C(=O)c2ccc(CN3CCOCC3)cc2)CC1` was -34.6%. Regarding `Cc1ccc(O)c(C(=O)c2cnc3c(c2)COc2ccc(C)cc2-3)c1`, the “hERG current change (%, negative = inhibition) at 10uM” value is 9.15%. As to `CC(NC(=O)CN(C)CC(=O)Nc1ccccc1Br)c1ccccc1.O=C(O)C(=O)O` (stereo not drawn), the “hERG current change (%, negative = inhibition) at 10uM” value was found to be 6.92%. In the case of `CC1CCN(c2nc3nonc3nc2N2CCC(C)CC2)CC1`, the “hERG current change (%, negative = inhibition) at 10uM” value is -12%.
